In all, about 33,000 sequences were measured (“E-score (-0.5 to 0.5)”: median about -0.043, highest 2% from about 0.37 on). The list shows a part of the results.
Molecular target: T1, Upc2 (UniProt Q12151)
T1 sequence: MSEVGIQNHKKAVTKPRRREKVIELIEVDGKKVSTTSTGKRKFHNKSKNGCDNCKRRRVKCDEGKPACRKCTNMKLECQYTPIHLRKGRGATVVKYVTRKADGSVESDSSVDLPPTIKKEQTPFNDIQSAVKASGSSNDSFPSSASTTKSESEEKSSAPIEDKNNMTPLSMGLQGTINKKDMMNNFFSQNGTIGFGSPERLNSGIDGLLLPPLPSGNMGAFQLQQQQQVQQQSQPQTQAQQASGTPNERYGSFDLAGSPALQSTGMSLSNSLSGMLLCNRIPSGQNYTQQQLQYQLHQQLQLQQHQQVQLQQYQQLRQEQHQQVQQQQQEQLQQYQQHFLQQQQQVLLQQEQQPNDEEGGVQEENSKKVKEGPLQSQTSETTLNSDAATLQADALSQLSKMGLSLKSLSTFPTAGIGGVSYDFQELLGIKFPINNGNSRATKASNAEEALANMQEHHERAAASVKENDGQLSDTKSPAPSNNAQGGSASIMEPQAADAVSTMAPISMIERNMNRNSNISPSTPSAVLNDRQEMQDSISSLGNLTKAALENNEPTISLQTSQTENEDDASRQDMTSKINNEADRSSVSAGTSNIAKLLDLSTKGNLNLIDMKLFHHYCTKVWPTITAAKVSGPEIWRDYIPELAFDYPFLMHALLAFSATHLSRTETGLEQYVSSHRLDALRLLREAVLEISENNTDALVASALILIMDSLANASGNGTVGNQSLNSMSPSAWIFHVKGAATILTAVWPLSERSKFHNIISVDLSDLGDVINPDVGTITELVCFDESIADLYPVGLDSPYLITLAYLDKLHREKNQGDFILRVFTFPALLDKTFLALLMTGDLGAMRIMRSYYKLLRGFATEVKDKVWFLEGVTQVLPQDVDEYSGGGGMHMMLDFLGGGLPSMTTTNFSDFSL
Experiment: PBM E-score (8-mer binding enrichment) (E-score (-0.5 to 0.5)); higher = stronger / more preferred TF binding; most listed sequences are background and not binding sites
Details: protein concentration: 200 nM; construct: GST-full length
Outline: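 E-scores (a modified Wilcoxon-Mann-Whitney statistic) were assigned by the Universal PBM Analysis Suite to every ungapped eight-base word pooled with its reverse complement. The input came from universal all-10-mer Agilent arrays made double-stranded by primer extension and probed with GST-tagged yeast transcription factors at about 100-200 nM. Fluorescent anti-GST detected bound protein, and masliner normalised the scans.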

Sequence	PBM E-score
CATAAATA	-0.0593
CGGTGTAC	0.277
CTGAAAAC	0.0321
ATACTGAC	0.14
TCGAACGA	0.368
GAGGTATC	-0.127
CCAAATAG	-0.0106
ACTCCTTC	-0.235
CGGCTTTC	-0.0637
AGCTAGAG	-0.07
ACCCCTCT	-0.179
GTTAGGCA	-0.13
CGCAATCC	0.0609
AATTACTC	-0.064
ACTGTCAG	-0.0612
ACCGTGTG	-0.118
GAGGTCTA	0.129
AACATCGT	0.198
CGTTGGCA	-0.019
CGGGTCGA	0.0218
ACATGTGC	0.0271
ACGGATTG	0.146
GATGCTGC	-0.157
AAAGGGTG	-0.342
CCTACCGA	-0.0373

Sequence	PBM E-score
GACCTCTC	0.18
CTCGGAAG	-0.0694
AACTACCG	-0.0994
CTAGAGAC	-0.247
GGGGTTGA	-0.294
GATAAACC	0.0863
ACGGTACA	0.178
AATGGTCG	0.153
AAGGGGGT	-0.384
CAGTCCTC	-0.348
ATCCCGTC	-0.104
CAAGCCGC	-0.158
GCTTTGTA	0.0521
ATTGCATG	-0.00567
CCCTGCCC	-0.138
AGTAAATG	-0.0961
AACGATCC	0.345
ACTTTGAG	-0.174
GACGGCCA	-0.252
ATAAAGAG	-0.00074
AAACGTGT	0.216
CACTGATG	-0.204
GCGCCGTA	0.358
TCATGAGA	-0.0162
CAAAGGAG	-0.206

Sequence	PBM E-score
CATGACGA	-0.00458
AGTAGCAG	0.0251
ATCGCGAG	0.175
GAAGTTAC	0.0138
GATTGTAC	0.103
CCAATACA	-0.214
ACTTATAA	0.0838
TCTGAGAA	-0.0854
ATAAGTCA	-0.064
CAAGCCCG	-0.0532
ACCTGTGA	-0.0274
AGGTGTGG	-0.0984
GTCTAGGA	-0.181
GTATTTTA	0.147
AGATGGCG	-0.163
CACCATAA	-0.0218
ATCATTCG	0.183
TACCAGCA	0.124
GGGAGCAC	-0.148
GATATAGC	0.113
AGATACGG	0.307
TAAAGGGA	-0.0549
AAGTCCGA	-0.105
GTTTCTCA	-0.0898
TAGAGGCA	-0.107

Sequence	PBM E-score
AAGCTGGA	-0.0494
CACCATCA	-0.133
AACTGGTG	-0.163
CAAGCCCA	-0.193
CAATCGAA	0.0705
GACACTCC	-0.166
CCAGGAGC	-0.0583
ATCCAATG	-0.334
CTCATGGA	-0.27
GGGATGTA	-0.0478
AAGAGACC	-0.0923
GTATTGAC	-0.0608
ACGACCGA	0.358
GGGGAAAC	-0.118
CCTTTTAA	0.0443
CTGCGATA	0.0685
AAGAGCCA	-0.0122
GACACATC	-0.036
AGCAGTAT	-0.0128
AACGTATT	0.212
GGGGAGAC	-0.258
CAGCTAAA	0.134
CAACATGA	-0.0461
GCCTTTCC	-0.245
GCATATCA	0.00103

Sequence	PBM E-score
GCGTTAAA	0.241
AAACCAAT	-0.135
GGAAACCC	-0.0863
AACTCAGA	-0.121
AAAATGCA	-0.23
CCTTTCCG	-0.184
CTTCACGC	0.0017
CACAGTGC	-0.158
ATCCACTA	-0.0471
CTCCCGAA	-0.129
AAATTTTA	0.0925
GCGCCACA	-0.00805
AGACGCCC	-0.0568
CCAAAATC	-0.0684
AACGTGAT	0.0242
CCGATTGA	-0.0444
CCATGGCG	-0.111
CTTAAAGC	0.0841
CCACTGGA	-0.17
ATCCTGAG	-0.0282
ATGTGCCA	-0.225
CCTATCCC	-0.0129
AATTACAG	0.103
CACACTGC	-0.122
CAGTTCCA	-0.128

Sequence	PBM E-score
AGTCCTAT	-0.181
CCTCAACA	0.005
CGCTCAAG	0.162
TCCCAACA	-0.132
CGAAGCAA	0.138
ACCCAGTC	-0.107
AAGGTGAA	-0.0909
AGTCAAGA	-0.0104
ATTTGCTA	-0.248
AAAATTTT	0.0821
AACCGTAG	0.103
GTAGAAAC	0.0447
CGAACCAA	0.134
AAAGTTCG	0.113
GGACTTAA	-0.0235
AAAATCAC	-0.0435
CCCGCGAG	-0.00772
AAGTAGTC	-0.0992
CAAGGCCG	-0.109
TCAGAGGA	-0.236
CGCTGCAG	-0.127
AGCCACTC	-0.12
GGCATAGA	-0.124
GATGTTAC	0.0419
CGAAAAAA	0.215

Sequence	PBM E-score
ATCCCAGC	-0.0536
CTTACCTC	-0.148
ACGCTGCG	0.102
GCAGACTA	-0.21
CATGTTCG	0.132
GGGATGGA	-0.11
TAACGTGA	-0.0783
CCGAAAGC	-0.0402
CGTCCCTC	-0.106
CCGTTTCC	0.134
AAGTGGCT	-0.115
ATCAAGGA	-0.144
ACCGACCA	0.221
AAAGATCA	0.00184
ACACCTAC	-0.0295
ATGTAAAA	0.0161
CCTTTCCC	-0.315
ACCGTCTC	0.00181
CCGTTGAC	0.0523
ATATTCAT	0.0497
CATACCGG	-0.156
CTGGTGTA	-0.135
CCATCTCG	0.0626
ACGATTGG	0.217
AGCGGTTA	0.0122

Sequence	PBM E-score
AGGGAGCG	0.00315
ATGCCTTC	-0.267
GCTCTACA	-0.0883
AGTACTAC	0.119
AGAGAAGC	-0.184
GGCTGGCA	-0.349
AAAATCAG	-0.013
CAAGGTAA	0.142
ATGGATTG	0.0337
CTCTTATC	0.111
CTTATCAA	-0.00408
GATTTTAA	0.0246
ACAACAGG	-0.0579
CTAAAAAA	-0.0251
ATGAGTGC	0.16
ATGCAAAT	0.0383
AACCATCA	0.0454
ATTCATAC	0.129
AGGCGACG	-0.0639
GGGGACCC	-0.22
AATCTCCT	-0.29
CCCGTGAC	-0.203
GTCGGATA	0.313
ACTATATC	0.00314
CATAGCTA	-0.138

Sequence	PBM E-score
ATGGAGAG	-0.313
CGAGGCCA	0.192
ACAAGGGC	-0.31
AGTGTAAG	-0.0723
CCCTAAGG	-0.302
AGCGGAGA	-0.176
TCAGTCAA	-0.0478
GATTGCGC	-0.156
CAGGGCGC	-0.187
CGCGGAAC	0.299
GGCGACAA	-0.25
ACAGCCAA	-0.121
ATATCCCA	0.038
CAGTTGTA	-0.102
CGTCAATC	-0.0306
AGAAGTAG	-0.0709
ATTTTGGC	-0.0172
ACTGGTTA	-0.0603
ACTTTAAC	0.0733
ACAGGCCA	-0.158
AGGTTGGA	-0.118
CTTTCCTA	-0.298
ATCGTGTG	0.0705
CTGTTGAA	-0.0374
TACCCCGA	-0.0408

Sequence	PBM E-score
GTACAAAA	0.31
ACTCAAGG	-0.259
ATTTCACC	-0.0598
CAACGTTC	0.0866
CCGGAAAC	0.00074
GGTCAGAA	-0.0416
GGAATTAA	0.143
CATACAAG	-0.192
CCATGAGC	-0.328
CTCCGAAC	-0.0473
ATGTGTTG	0.103
ACTCTCAG	-0.232
ACCCTGCT	-0.0867
CGTCGACA	-0.0726
GACAAGCC	-0.0362
GAGTCGAC	0.0138
AGAAAGTC	0.0722
ATAAATCG	0.181
ACATAGTC	0.038
AGGCTTGG	-0.0783
AACCCGCA	0.0294
TCTCCAGA	-0.121
AAGAGTGA	-0.104
AGAACACT	0.105
GCGTCATA	0.0752

Sequence	PBM E-score
CTACCAAA	-0.0311
ACCTGTGC	-0.0927
GGTTGCTA	-0.126
CGAGTGAG	0.116
GTCTTCGA	-0.124
GACTGGGA	-0.199
ATAGCGAG	0.106
GACAGGGC	-0.00491
CTCCCAAC	-0.0916
ACTCAGCA	-0.185
CTCGTCGC	0.0828
AGGTCAAA	-0.135
AGCCCGAT	-0.14
TGTCCCAA	-0.0626
ATCGTGGG	-0.0189
ATAGTCTG	-0.124
CGTATCTC	0.289
GACTCCTC	-0.0345
AGAGGCCA	-0.13
AGTGCGAG	0.0414
TCGTCTAA	0.259
CCGGGATC	-0.0654
ACCAGAGG	-0.277
ACAATAGG	0.0197
AATAAAGA	0.0304

Sequence	PBM E-score
AATGCATA	0.00543
AGCGGTAA	-0.119
ATAGGCAC	-0.163
AGTTAGCA	-0.0102
ACTATACG	0.478
ATGAACAC	0.00333
GCAAAGAA	-0.0229
AAAAATTT	0.151
ACGAAAAT	0.362
CACAGCCC	-0.231
GTGAAGGA	-0.0439
CAAACCGA	0.118
ACGTATGG	0.329
ACTTCAAG	-0.156
ACTGTCTA	0.0492
GCTTCGCA	0.186
AACAGGGG	-0.185
AGGGCAAG	-0.113
ATACGATG	0.473
GAGCGAGC	0.273
AGATAAAA	-0.00321
AATTTCGT	0.307
CGCTTGAG	0.027
AAGCGACA	0.223
AAGGTAGT	-0.0541

Sequence	PBM E-score
AACGCAGC	0.162
AGTAACGA	0.299
GACACATA	-0.105
AGGAACTC	-0.0466
ACTGTTCA	-0.117
TCGCTAAA	0.316
CACTCACA	-0.0817
AGGTCCAT	-0.251
AGGCCGCA	0.0421
ATTATATA	0.0992
CCGACACA	-0.00715
CGATATCA	0.143
CACCGTCC	-0.16
AATCGCCG	0.0504
GCCGGTGA	-0.173
ACCATCCA	-0.342
CCATCAAG	-0.12
GGACTCCA	-0.212
AGAAAACG	0.149
CCCCATGA	-0.336
CATACCTC	0.0324
CCTGGGCA	-0.15
ATTAAGCG	0.317
ACGTCTAT	-0.182
CGTCCGGA	-0.104

Sequence	PBM E-score
CACGTATA	0.433
GGCAAACC	-0.148
AGCGTTCA	-0.0376
TAACCTCA	-0.0456
AGCTATGA	-0.0903
AAATCTGA	-0.145
CATCGGAC	-0.0234
GCGGTGAA	-0.025
AAACAGCC	-0.093
GCTACGAA	0.395
ATGATTGG	-0.205
ACTCATCC	-0.0482
GACCCACC	-0.113
GATACCCA	0.00945
AACGCTCC	-0.037
CAATCTGG	-0.267
CACATTAA	-0.133
TAGATCAA	0.0327
AAAGTGAT	-0.0453
